The text below walks through data of PMC4336329 (PLoS ONE, 2015).

The campaign covered roughly 310,000 compounds. About 14,000 (4.5%) showed an effect of 50% or more. The effect is printed as a negative number. Some of the results follow.
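Also: peak tail current of the secondary pulse compared with the same well before compound.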

The target in this test is human ether-à-go-go-related gene (hERG) potassium channel (human, UniProt Q12809). The experiment in a line: primary screen, population patch clamp on CHO cells stably expressing hERG.
human ether-à-go-go-related gene (hERG) potassium channel, sequence (Q12809 whole entry, looked up): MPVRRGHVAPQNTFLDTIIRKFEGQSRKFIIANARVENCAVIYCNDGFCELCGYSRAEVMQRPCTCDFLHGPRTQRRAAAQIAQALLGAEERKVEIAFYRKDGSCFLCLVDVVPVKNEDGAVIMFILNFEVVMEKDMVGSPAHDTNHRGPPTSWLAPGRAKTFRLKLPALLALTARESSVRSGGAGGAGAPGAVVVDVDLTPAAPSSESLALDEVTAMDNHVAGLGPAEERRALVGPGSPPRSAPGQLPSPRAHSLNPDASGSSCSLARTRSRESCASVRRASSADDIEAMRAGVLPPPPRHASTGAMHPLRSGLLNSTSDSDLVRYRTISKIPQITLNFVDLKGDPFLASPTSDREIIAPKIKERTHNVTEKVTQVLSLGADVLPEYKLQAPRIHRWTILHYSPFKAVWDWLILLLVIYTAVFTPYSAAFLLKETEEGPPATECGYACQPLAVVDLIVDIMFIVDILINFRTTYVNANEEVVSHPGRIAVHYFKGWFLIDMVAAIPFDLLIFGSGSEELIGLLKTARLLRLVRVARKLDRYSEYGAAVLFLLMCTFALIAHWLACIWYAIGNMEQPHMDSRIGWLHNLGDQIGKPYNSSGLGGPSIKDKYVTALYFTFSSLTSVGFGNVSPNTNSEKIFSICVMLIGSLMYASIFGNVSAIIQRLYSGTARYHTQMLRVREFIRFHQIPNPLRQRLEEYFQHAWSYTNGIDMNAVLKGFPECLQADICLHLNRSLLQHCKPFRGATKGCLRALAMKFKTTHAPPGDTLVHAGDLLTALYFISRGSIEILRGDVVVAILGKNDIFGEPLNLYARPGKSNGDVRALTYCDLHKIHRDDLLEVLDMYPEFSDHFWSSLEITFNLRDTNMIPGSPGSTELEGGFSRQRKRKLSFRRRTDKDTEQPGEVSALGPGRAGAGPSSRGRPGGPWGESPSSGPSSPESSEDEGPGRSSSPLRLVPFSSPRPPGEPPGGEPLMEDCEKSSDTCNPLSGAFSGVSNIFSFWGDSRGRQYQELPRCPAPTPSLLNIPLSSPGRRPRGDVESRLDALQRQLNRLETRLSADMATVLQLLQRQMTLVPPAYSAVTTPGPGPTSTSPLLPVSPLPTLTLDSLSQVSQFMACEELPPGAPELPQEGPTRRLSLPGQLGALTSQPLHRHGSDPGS
On to `N/C(=N\OC(=O)c1cc(Br)ccc1Cl)c1ccccn1`, for which the “hERG current change (%, negative = inhibition) at 10uM” value amounted to 13.1%.

On to `O=C1CCCN1CCCNC(=S)Nc1ccc(Cl)cc1Cl`, for which the “hERG current change (%, negative = inhibition) at 10uM” value was -65.5%.

Take `N=c1c(C(=O)NCCN2CCOCC2)cc2c(=O)n3ccccc3nc2n1Cc1ccc(F)cc1`: the “hERG current change (%, negative = inhibition) at 10uM” value is -76.5%.

For `Cc1ccc(-n2nc(-c3ccco3)cc2C(=O)NCc2cccnc2)cc1`, the “hERG current change (%, negative = inhibition) at 10uM” value is -38.6%.

In the case of `CC(C)Sc1nc(N)c2c3c(sc2n1)CN(C)CC3`, the “hERG current change (%, negative = inhibition) at 10uM” value is on record as -34%.

In the case of `Cc1ccc(C(=O)NC2CCN(S(=O)(=O)c3ccccc3F)CC2)cc1`, the “hERG current change (%, negative = inhibition) at 10uM” value was determined as 22%.

On to `CC(=O)Nc1ccccc1C(=O)OCC(=O)c1ccc2ccccc2c1`, for which the “hERG current change (%, negative = inhibition) at 10uM” value came out at 0.264%.

For `O=C(c1ccccc1)N1CCN(Cc2ccc3c(c2)OCO3)CC1`, the “hERG current change (%, negative = inhibition) at 10uM” value is reported as 11.5%.

As to `CCN(C(=O)CCN1C(=O)S/C(=C\c2ccccc2)C1=O)C1CCS(=O)(=O)C1` (stereo not shown), the “hERG current change (%, negative = inhibition) at 10uM” value is -15.9%.

For the molecule `Cc1ccc(S(=O)(=O)N(CCC#N)CCN2CCCC2)cc1`, the “hERG current change (%, negative = inhibition) at 10uM” value is -21.9%.

For `CC(C)[C@H](NC(=O)C1CC(=O)N(c2ccc3c(c2)OCCO3)C1)C(=O)NC1CCCC1` (stereo partly shown), the “hERG current change (%, negative = inhibition) at 10uM” value turned out to be 15.3%.

On to `N/C(=N\OC(=O)c1cccs1)c1ccc(Cl)cc1`, for which the “hERG current change (%, negative = inhibition) at 10uM” value was 6.63%.

On to `CCNc1ccc(C(=O)OCC)cc1NC(=O)c1cccc(S(=O)(=O)N(C)c2ccccc2)c1`, for which the “hERG current change (%, negative = inhibition) at 10uM” value is reported as -6.49%.

Consider `Cc1cc(C)n(CC(O)COc2cccc(OCC(O)Cn3nc(C)cc3C)c2)n1` (stereo not shown), for which the “hERG current change (%, negative = inhibition) at 10uM” value is on record as 4.59%.

On to `CC(C)c1nc(SCC(=O)N2CC(=O)Nc3ccccc32)c2ccccc2n1`, for which the “hERG current change (%, negative = inhibition) at 10uM” value is 39.9%.

In the case of `CN(C)c1ccc(C(C(=O)NCC2CCCO2)N(Cc2ccco2)C(=O)c2snc(C(N)=O)c2N)cc1` (stereo not shown), the “hERG current change (%, negative = inhibition) at 10uM” value is 12.3%.

With `O=C(O)CCC(=O)NCc1ccc(C(=O)O)cc1`, the “hERG current change (%, negative = inhibition) at 10uM” value turned out to be 0.97%.

Regarding `Cc1ccc(COn2c(-c3ccc(Cl)cc3)nc3ccc([N+](=O)[O-])cc32)cc1`, the “hERG current change (%, negative = inhibition) at 10uM” value was found to be 3.22%.

For the molecule `CCOc1ccc(CCNC(=O)COC(=O)c2cc(S(=O)(=O)N3CCOCC3)ccc2F)cc1OCC`, the “hERG current change (%, negative = inhibition) at 10uM” value is on record as -12.6%.

As to `CCCCN(C)CCNC(=O)CCNC(=O)Cn1ccc2ccccc2c1=O`, the “hERG current change (%, negative = inhibition) at 10uM” value is recorded as 27%.

As for `CC(C)C(NC(=O)c1ccc(F)cc1)C(=O)N1CCN(C(=O)c2ccco2)CC1` (stereo not shown), the “hERG current change (%, negative = inhibition) at 10uM” value was -17%.

As to `CN(C)c1cccc(C(=O)N2CCCC(C(=O)c3cc(F)ccc3F)C2)c1` (stereo not shown), the “hERG current change (%, negative = inhibition) at 10uM” value turned out to be 0.21%.

Regarding `COc1cc(/C=C2\SC(N3CCC(C)CC3)=NC2=O)ccc1O`, the “hERG current change (%, negative = inhibition) at 10uM” value is on record as -5.99%.

On to `Nc1nnc(SCC(=O)Nc2ccc3nc(SCC(=O)Nc4ccccc4)sc3c2)s1`, for which the “hERG current change (%, negative = inhibition) at 10uM” value is given as -4.18%.

Turning to `COc1ccc(CNC(=O)COc2ccc(S(=O)(=O)N3CCCCC3)cc2)cc1`, the “hERG current change (%, negative = inhibition) at 10uM” value worked out at 6.5%.

`C=CCNCc1cc(=O)n2c(-c3ccccc3)csc2n1.O=C(O)C(=O)O`: the “hERG current change (%, negative = inhibition) at 10uM” value turned out to be 11.6%.

Consider `CC1=C(C(=O)O)N2C(=O)C(NC(=O)c3ccccc3Cl)C2SC1` (stereo not shown), for which the “hERG current change (%, negative = inhibition) at 10uM” value turned out to be 12.8%.

As to `CCC(=O)NC(=S)Nc1cccc(C(C)=O)c1`, the “hERG current change (%, negative = inhibition) at 10uM” value is -2.17%.

As to `CCN(CC)c1ccc(S(=O)(=O)N2CCCCC2)cc1NC(=O)C1CSC2(C)CCC(=O)N12` (stereo not shown), the “hERG current change (%, negative = inhibition) at 10uM” value is on record as -32.1%.

`O=C(CCc1nnc2ccc(N3CCC4(CC3)OCCO4)nn12)NCc1ccccc1Cl`: the “hERG current change (%, negative = inhibition) at 10uM” value stood at 16.5%.

On to `CC(C)OCCCNC(=O)Cn1ccc2cc(S(=O)(=O)N3CCCCC3)ccc21`, for which the “hERG current change (%, negative = inhibition) at 10uM” value is given as -4.17%.

On to `CCn1cc(CNC(=O)NC2CCCCC2)c(C)n1`, for which the “hERG current change (%, negative = inhibition) at 10uM” value was determined as 8.03%.

Turning to `Cc1ccc(S(=O)(=O)N(CC(=O)Nc2ccc(C(N)=O)cc2)C(=O)N2CCN(C)CC2)cc1`, the “hERG current change (%, negative = inhibition) at 10uM” value is listed as -0.0686%.

As to `N#CC12C(N)=NC3(OCCO3)C1(C#N)C1=C(CCC1)NC2c1ccccc1` (stereo not shown), the “hERG current change (%, negative = inhibition) at 10uM” value is reported as 12.4%.

`COc1cccc2sc3ccc(C#CC4(N)CCCCC4)cc3c(=O)c12`: the “hERG current change (%, negative = inhibition) at 10uM” value came to 9.26%.

For `CCCOC(=O)c1[nH]c2c(c1C)C(=O)CC(c1cccs1)C2` (stereo not shown), the “hERG current change (%, negative = inhibition) at 10uM” value is on record as 11.3%.

As to `CN1CCS/C1=C/C=C1\SC(=S)N(CC(=O)O)C1=O`, the “hERG current change (%, negative = inhibition) at 10uM” value was determined as 5.2%.

Consider `CCN1C(=O)/C(=C/C=C2\N(CC)c3cc(S(=O)(=O)N(C)C)ccc3N2c2ccccc2)SC1=S`, for which the “hERG current change (%, negative = inhibition) at 10uM” value is listed as 0.17%.

Regarding `CCSc1nc(C(F)(F)F)cc(=O)n1-c1ccccc1`, the “hERG current change (%, negative = inhibition) at 10uM” value was -3.32%.

For the molecule `Cc1ccc(N2CC(C(=O)N3CCC(C(=O)Nc4nnc(C(C)C)s4)CC3)CC2=O)cc1` (stereo not shown), the “hERG current change (%, negative = inhibition) at 10uM” value is on record as 10.7%.

On to `O=C(COc1ccccc1[N+](=O)[O-])Nc1ccc(CN2CCOCC2)cc1`, for which the “hERG current change (%, negative = inhibition) at 10uM” value is -28.2%.

As for `COc1cccc(C(=O)N2CCN(Cc3cc(Br)ccc3OC)CC2)c1.O=C(O)C(=O)O`, the “hERG current change (%, negative = inhibition) at 10uM” value is listed as -51.8%.

Regarding `COc1cc2cc(CCOC(=O)N3CCCCC3)oc(=O)c2cc1OC`, the “hERG current change (%, negative = inhibition) at 10uM” value came out at 5.38%.

On to `COCCCNC(=O)CCCOc1ccccc1`, for which the “hERG current change (%, negative = inhibition) at 10uM” value is recorded as -5.81%.

Consider `O=C(CN1C(=O)NC2(CCCCCC2)C1=O)NCc1ccco1`, for which the “hERG current change (%, negative = inhibition) at 10uM” value was 23.9%.

Take `COc1cc(CNCCc2c[nH]c3ccccc23)cc(OC)c1.O=C(O)C(=O)O`: the “hERG current change (%, negative = inhibition) at 10uM” value is listed as -43.9%.

As to `COc1ccc(CCN=C(N)NS(=O)(=O)c2ccc(C)cc2)cc1OC`, the “hERG current change (%, negative = inhibition) at 10uM” value was 6.05%.

Turning to `CCN1CC2=C(OC(N)=C(C#N)C2c2cccs2)/C(=C\c2cccs2)C1` (stereo not shown), the “hERG current change (%, negative = inhibition) at 10uM” value is -35%.

On to `COc1ccc(NC(=O)c2c(OC)cccc2OC)c(OC)c1`, for which the “hERG current change (%, negative = inhibition) at 10uM” value was 9.92%.

With `CC1CCc2c(C(=O)NCCN3CCOCC3)csc2C1` (stereo not shown), the “hERG current change (%, negative = inhibition) at 10uM” value stood at 8.2%.

Take `CC(C)CC(=O)Nc1nnc(-c2ccco2)s1`: the “hERG current change (%, negative = inhibition) at 10uM” value is recorded as -11.5%.

`COc1ccc(CNC(=O)c2ccc(CN3CCOCC3)cc2)cc1`: the “hERG current change (%, negative = inhibition) at 10uM” value came to 6.28%.

Turning to `COc1ccc(Br)cc1CNC(=O)C1CCCN(c2nc3ccccc3o2)C1` (stereo not shown), the “hERG current change (%, negative = inhibition) at 10uM” value was -17.9%.

Take `CCCc1ccc(-c2cc(C(=O)N/N=C/c3ccc([N+](=O)[O-])o3)c3ccccc3n2)cc1`: the “hERG current change (%, negative = inhibition) at 10uM” value is recorded as -1.61%.

On to `O=C(CC1Nc2ccccc2NC1=O)Nc1ccc2c(c1)OCO2` (stereo not shown), for which the “hERG current change (%, negative = inhibition) at 10uM” value was 15.9%.
